Assay results taken from PubChem BioAssay AID1508624 (National Center for Advancing Translational Sciences (NCATS), 2021).
In all, about 48,000 compounds went through this assay and about 120 (0.25%) were called active. Inconclusive results (about 4%) are left out. Calls come from the whole dose curve; as a rule, active = well fitted activation curve with a large enough effect; inconclusive = small, poorly fitted or top-dose-only effect, or another doubt; inactive = no such curve, though single readings can be large or run the other way. This is one part of the list.

Assay: Primary qHTS for Identification of Small Molecule Activators of Huntingtin-Antisense Promoter Activity; note: nearly all actives have a fitted effect of over 55% in size
Settings: HEK293 HTT-AS promoter firefly luciferase reporter (activity 0% = vehicle and -100% = no light), 24 h; series mostly up to 57.5 µM; activity change, positive = activation: at the top concentration
Description: Assay Provider: Russell L. Margolis M.D.
Department Neurology, Johns Hopkins University School of Medicine, Baltimore, MD
Huntington's Disease (HD) is a neurodegenerative disorder caused by a CAG repeat expansion in exon 1 of huntingtin (HTT). While there are currently no disease-modifying treatments for HD, recent efforts have focused on development of nucleotide-based therapeutics to lower HTT expression. As an alternative to siRNA or oligonucleotide methods, we hypothesized that suppression of HTT expression might be accomplished by small molecules that either (1) directly decrease HTT expression by suppressing HTT promoter activity or (2) indirectly decrease HTT expression by increasing the promoter activity of HTT-AS, the gene antisense to HTT that appears to inhibit expression of HTT.
We developed and employed a high throughput screen for modifiers of HTT and HTT-AS promoter activity using luminescent reporter HEK293 cells; of the 52,041 compounds tested, we identified 898 replicable hits. We used a rigorous stepwise approach to assess compound toxicity and the capacity of the compounds to specifically lower huntingtin protein in 5 different cell lines, including HEK293 cells, HD lymphoblastoid cells, mouse primary neurons, HD iPSCs differentiated into cortical-like neurons, and HD hESCs. We found no compounds which were able to lower huntingtin without lowering cell viability in all assays, though the potential efficacy of a few compounds at non-toxic doses could not be excluded.
SEQUENCE No. (1, 2, 3, etc.); […] (e.g., Cells, Incubation, Reagent, etc.); VALUE and DESCRIPTION.
1; Reagent; 4 uL; 2,500 Hek293 luciferase reporter cells per wells
3; Compound; 23 nL; Control inhibitor / compound library
5; Reagent; 2.5 uL; Firefly Luc reagent; Dual-Glo Luciferase Reporter Assay System (Promega)
6; Time; 10 min; room temperature incubation
7; Detection; Luminescence; FLuc
NOTES (numbers refer to sequence above)
1; High-throughput screening, measuring luminescence from a Hek293 luciferase reporter, was performed in 1,536 well white-walled tissue-culture treated plates. 2,500 cells were plated in 4 µL of Opti-MEM per well using a Multidrop Combi Reagent Dispenser (ThermoFisher).
2; Assay plates were cultured for 24 hours.
3; Control inhibitor (PTC124; final concentration of 50 uM) and compound library (at final concentrations of 460 nM - 57.5 uM) were added to the assay plate using the Kalypsis Pintool Robotic System equipped with 1536 pinheads.
4; Cells were then incubated for 24 hours at 37 degrees C prior to luminescence measurements.
5; In all cases, luminescence was measured using the Dual-Glo Luciferase Reporter Assay System (Promega) following the manufacturer's instructions.
6; Room temperature incubation.
7; Luminescence signal was obtained using the PerkinElmer ViewLux plate reader. Results were normalized to vehicle control (0% activity) and zero RLU (-100% activity).
Potency is the fitted concentration of half-maximal effect.

| SMILES | activity change, positive = activation | Potency |
| --- | --- | --- |
| COc1cccc(Cn2c(SCC(=O)N(C)c3ccccc3)nc3ccccc32)c1 | inactive: -21.5% | – |
| COc1cccc2cc(-c3csc(-c4ccc(Cl)cc4)n3)c(=O)oc12 | inactive: -13.3% | – |
| O=C(Nc1ccc(F)c(C(F)(F)F)c1)Nc1nnc(-c2ccncc2)s1 | inactive: -33.3% | – |
| Cc1ccccc1CNC(=O)c1ccc(CSc2nc3cccnc3n2Cc2ccccc2)cc1 | inactive: -25.4% | – |
| CCc1ccc(-n2c(SCc3ccccc3C)nc3[nH]ncc3c2=O)cc1 | inactive: -31.2% | – |
| Cc1ccc(-c2nc(CS(=O)(=O)CC(=O)NCc3ccc(Cl)cc3)c(C)o2)cc1 | inactive: -10.2% | – |
| COC(=O)c1ccc(Cn2c(SCc3ccccc3)nc3ccncc32)cc1 | inactive: 4.15% | – |
| CCCN(C(=O)COc1cc(=O)n(CC)c2ccccc12)c1ccc(C(C)C)cc1 | inactive: -40.8% | – |
| CCc1ccc(-n2nc(C)c3c(C(=O)Nc4cc(C)c(Cl)cc4OC)cc(C)nc32)cc1 | inactive: -7.4% | – |
| CC(C)c1ccc(NC(=O)CCS(=O)(=O)c2cccc3nonc23)cc1 | inactive: 13.9% | – |
| CCc1ccc(-c2nn(CC(=O)NCc3ccccc3)c3c2cnc2ccc(C)cc23)cc1 | inactive: -3.48% | – |
| O=C(CN1CCSc2ccccc21)N1CCCCC1 | inactive: -7.45% | – |
| Cc1ccc(CCNC(=O)c2ccc(CNS(=O)(=O)c3ccccc3)cc2)cc1 | inactive: -31.4% | – |
| CCOc1ccccc1NC(=O)Cn1c(=O)n(-c2ccc(F)cc2)c(=O)c2c3c(sc21)CN(C(C)=O)CC3 | inactive: -7.83% | – |
| CCc1nn(CC(=O)NCc2ccc(OC)c(OC)c2)c(=O)c2cc3sc(C)cc3n12 | inactive: -10.7% | – |
| CCOC(=O)c1c(NC(=O)c2cc3nc(-c4ccccc4)cc(C(F)(F)F)n3n2)sc2c1CCC(C)C2 (configuration not stated) | inactive: -11.7% | – |
| CCCNC(=O)c1cnc2sc(N3CCCCCC3)nn2c1=O | inactive: 14.3% | – |
| Cc1cc(C(=O)Nc2cccc(F)c2)c2c(C)nn(-c3cccc(Cl)c3C)c2n1 | inactive: -41.4% | – |
| CCOc1ccc(C(=O)Nc2ccccc2OCc2cc(=O)n3ccccc3n2)cc1 | inactive: -6.99% | – |
| COc1ccccc1OCCCCn1c(-c2ccc(Cl)cc2)nc2ccccc2c1=O | inactive: -6.56% | – |
| CCOC(=O)N1CCC(=C2c3ccc(Cl)cc3CCc3cccnc32)CC1 | inactive | – |
| COc1ccc(CCNC(=O)c2nc(SCc3ccc(C)cc3)ncc2Cl)cc1OC | inactive: -45.5% | – |
| CCOC(=O)Cn1c(=O)n(-c2ccccc2OC)c2nc(-c3ccccc3F)nc(C(N)=O)c21 | inactive: -17.7% | – |
| CN(C)c1ccc(C(=O)Nc2cccc(-c3nc4cccnc4s3)c2)cc1 | inactive: 8.81% | – |

| SMILES | activity change, positive = activation | Potency |
| --- | --- | --- |
| COc1cccc2c1Oc1ncccc1N(C(=O)CCC(=O)NC(C)C)C2 | inactive: -6.86% | – |
| CCC(=O)N1CCc2cc(CNS(=O)(=O)c3ccc(NC(=O)CC(C)C)cc3)ccc21 | inactive: -27.6% | – |
| CCc1c(C)sc2c1CCN(C(=O)Nc1cc(Cl)c(OC)cc1OC)C2c1ccccc1 (configuration not stated) | inactive: -17% | – |
| COc1ccc2c(c1)CC(C(=O)NCCCN1CCN(c3ccccc3F)CC1)CO2 (configuration not stated) | inactive: -20.5% | – |
| CCC(=O)N1CCc2cc(Br)cc(S(=O)(=O)CCC(=O)Nc3ccc(C)c(F)c3)c21 | inactive: 10% | – |
| C#CCn1cnc2c(cnn2-c2ccc(F)cc2)c1=O | inactive: -4.7% | – |
| O=C(NOCC1CC1)c1ccc(F)c(F)c1Nc1ccc(I)cc1Cl | inactive | – |
| CCn1c(C)c(C)c2cc(C(=O)NCc3ccc(OC)cc3OC)ccc21 | inactive: -11.8% | – |
| CCN(CC)S(=O)(=O)c1ccc(NC(=O)c2c(C)oc3ncnc(N4CCOCC4)c23)cc1 | inactive: -18.6% | – |
| CC(C)(C)c1ccc(C2=NC(C)(C)N(CC(=O)Nc3ccc(F)c(F)c3)C2=O)cc1 | inactive: -31% | – |
| CC(=O)Nc1ccc(NC(=O)c2cc3sccc3n2Cc2ccc(Cl)cc2)cc1 | inactive: -22.4% | – |
| COc1cc(NC(=O)Cn2cnc3c2c(=O)n(C)c(=O)n3C)c(OC)cc1Cl | inactive: -11.4% | – |
| CCOC(=O)c1c(NC(=O)/C(C#N)=C/c2ccccc2)sc2c1CCC2 | inactive: 9.78% | – |
| Cc1cc(C)cc(NC(=O)Nc2ccccc2OCc2cc(=O)n3ccccc3n2)c1 | inactive: 14.7% | – |
| CCOc1ccccc1NC(=O)c1c(NCc2cccs2)sc2c1CCCCC2 | inactive: -23.8% | – |
| CCOc1ccc(NC(=O)c2c(NC(=O)c3ccccc3F)sc3c2CCC3)cc1 | inactive: -6.84% | – |
| CCOc1cc(/C=C(\C#N)C(=O)Nc2ccc(C)cc2)ccc1OCc1cc(=O)n2nc(CC)sc2n1 | inactive: -11.5% | – |
| Nc1ncnc2c1ncn2Cc1c(F)cccc1Cl | inactive: -5.51% | – |
| Cc1ccc(NC(=O)c2cccc(N3CCCS3(=O)=O)c2)cc1C | – | active: 2.24 µM |
| Cc1ccc(NC(=O)[C@H]2O[C@@H]3OC(C)(C)O[C@@H]3[C@H]3OC(C)(C)O[C@H]32)cc1F | inactive: -5.53% | – |
| CC(C(=O)Nc1ccccc1C(F)(F)F)n1nnc2sc3c(c2c1=O)CCCC3 (configuration not stated) | inactive: -8.78% | – |
| CCc1ccc(CNC(=O)CSc2c3c(nc4ccc(Cl)cc24)CCCC3)cc1 | inactive: -9.18% | – |
| O=C(NCCn1cc(SCc2ccccc2F)c2ccccc21)c1cccs1 | inactive: -19.6% | – |
